# In the supplement of paper PMC8728848:
# This is one part of the list.
# B1: CAA (Caragana arborescens) (protein)
# chain: VAVEFDTFDNPDWDPRTKHIGIDVNSIRSNKTTQWGFWNRQVADVDISYEASSKTLNVSLYYPGESYIVTDVVDLKDILPEWVRIGF
# Columns and labels:
# Assay in all cases: glycan array binding signal (z-score within array); higher = stronger binding
# Settings in all cases: glycan notation: IUPAC condensed, linker removed
# [1] = biological target: Fuc(a1-2)[Gal(a1-3)]Gal(b1-4)GlcNAc(b1-2)Man(a1-3)[Fuc(a1-2)[Gal(a1-3)]Gal(b1-4)GlcNAc(b1-2)Man(a1-6)]Man(b1-4)GlcNAc(b1-4)GlcNAc
# Outline: (§1)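 Arrays were curated from the Consortium for Functional Glycomics database, 3228 in total, and kept only where the protein sequence was available. Binding is expressed as a within-array Z-score. This score was averaged across arrays of the same protein sequence at different concentrations or buffers and across linkers, and negative values can be read as non-binding.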
# [2] = biological target: Fuc(a1-2)[Gal(a1-3)]Gal(b1-4)GlcNAc(b1-2)Man(a1-3)[Fuc(a1-2)[Gal(a1-3)]Gal(b1-4)GlcNAc(b1-2)Man(a1-6)]Man(b1-4)GlcNAc(b1-4)[Fuc(a1-6)]GlcNAc
# Outline: as §1
# [3] = biological target: Fuc(a1-2)[Gal(a1-3)]Gal(b1-4)GlcNAc(b1-3)GalNAc
# Outline: as §1
# [4] = biological target: Fuc(a1-2)[Gal(a1-3)]Gal(b1-4)GlcNAc(b1-3)[Fuc(a1-2)[Gal(a1-3)]Gal(b1-4)GlcNAc(b1-6)]GalNAc
# Outline: as §1
# [5] = biological target: Fuc(a1-2)[Gal(a1-3)]Gal(b1-4)GlcNAc(b1-6)GalNAc
# Outline: as §1
# [6] = biological target: Fuc(a1-2)[Gal(a1-3)]Gal(b1-4)[Fuc(a1-3)]Glc
# Outline: as §1
# [7] = biological target: Fuc(a1-2)[Gal(a1-3)]Gal(b1-4)[Fuc(a1-3)]GlcNAc
# Outline: as §1
# [8] = biological target: Fuc(a1-2)[Gal(a1-3)]Gal(b1-4)[Fuc(a1-3)]GlcNAc(b1-3)GalNAc
# Outline: as §1
# [9] = biological target: Fuc(a1-2)[Gal(a1-4)]Gal(b1-4)GlcNAc
# Outline: as §1
# [10] = biological target: Fuc(a1-2)[GalNAc(a1-3)]Gal
# Outline: as §1
# [11] = biological target: Fuc(a1-2)[GalNAc(a1-3)]Gal(b1-3)GalNAc(a1-3)[Fuc(a1-2)]Gal(b1-4)GlcNAc
# Outline: as §1
# [12] = biological target: Fuc(a1-2)[GalNAc(a1-3)]Gal(b1-3)GalNAc(b1-3)Gal(a1-4)Gal(b1-4)Glc
# Outline: as §1
# [13] = biological target: Fuc(a1-2)[GalNAc(a1-3)]Gal(b1-3)GlcNAc
# Outline: as §1
# [14] = biological target: Fuc(a1-2)[GalNAc(a1-3)]Gal(b1-3)GlcNAc(b1-2)Man(a1-3)[Fuc(a1-2)[GalNAc(a1-3)]Gal(b1-3)GlcNAc(b1-2)Man(a1-6)]Man(b1-4)GlcNAc(b1-4)GlcNAc
# Outline: as §1
# [15] = biological target: Fuc(a1-2)[GalNAc(a1-3)]Gal(b1-3)GlcNAc(b1-2)Man(a1-3)[Fuc(a1-2)[GalNAc(a1-3)]Gal(b1-3)GlcNAc(b1-2)Man(a1-6)]Man(b1-4)GlcNAc(b1-4)[Fuc(a1-6)]GlcNAc
# Outline: as §1
# [16] = biological target: Fuc(a1-2)[GalNAc(a1-3)]Gal(b1-3)GlcNAc(b1-3)GalNAc
# Outline: as §1
# [17] = biological target: Fuc(a1-2)[GalNAc(a1-3)]Gal(b1-3)GlcNAc(b1-6)GalNAc
# Outline: as §1
# [18] = biological target: Fuc(a1-2)[GalNAc(a1-3)]Gal(b1-4)Glc
# Outline: as §1
# [19] = biological target: Fuc(a1-2)[GalNAc(a1-3)]Gal(b1-4)GlcNAc
# Outline: as §1
# [20] = biological target: Fuc(a1-2)[GalNAc(a1-3)]Gal(b1-4)GlcNAc(b1-2)Man
# Outline: as §1
# [21] = biological target: Fuc(a1-2)[GalNAc(a1-3)]Gal(b1-4)GlcNAc(b1-2)Man(a1-3)[Fuc(a1-2)[GalNAc(a1-3)]Gal(b1-4)GlcNAc(b1-2)Man(a1-6)]Man(b1-4)GlcNAc(b1-4)GlcNAc
# Outline: as §1
# [22] = biological target: Fuc(a1-2)[GalNAc(a1-3)]Gal(b1-4)GlcNAc(b1-2)Man(a1-3)[Fuc(a1-2)[GalNAc(a1-3)]Gal(b1-4)GlcNAc(b1-2)Man(a1-6)]Man(b1-4)GlcNAc(b1-4)[Fuc(a1-6)]GlcNAc
# Outline: as §1
# [23] = biological target: Fuc(a1-2)[GalNAc(a1-3)]Gal(b1-4)GlcNAc(b1-3)Gal(b1-4)GlcNAc
# Outline: as §1
# [24] = biological target: Fuc(a1-2)[GalNAc(a1-3)]Gal(b1-4)GlcNAc(b1-3)Gal(b1-4)GlcNAc(b1-3)Gal(b1-4)GlcNAc
# Outline: as §1
# [25] = biological target: Fuc(a1-2)[GalNAc(a1-3)]Gal(b1-4)GlcNAc(b1-3)GalNAc
# Outline: as §1
# [26] = biological target: Fuc(a1-2)[GalNAc(a1-3)]Gal(b1-4)GlcNAc(b1-3)[Fuc(a1-2)[GalNAc(a1-3)]Gal(b1-4)GlcNAc(b1-6)]GalNAc
# Outline: as §1
# [27] = biological target: Fuc(a1-2)[GalNAc(a1-3)]Gal(b1-4)GlcNAc(b1-6)GalNAc
# Outline: as §1
# [28] = biological target: Fuc(a1-2)[GalNAc(a1-3)]Gal(b1-4)[Fuc(a1-3)]GlcNAc
# Outline: as §1
# [29] = biological target: Fuc(a1-2)[GalNAc(a1-3)]Gal(b1-4)[Fuc(a1-3)]GlcNAc(b1-3)GalNAc
# Outline: as §1
# [30] = biological target: Fuc(a1-2)[GalNAc(a1-4)]Gal(b1-4)GlcNAc
# Outline: as §1
# [31] = biological target: Fuc(a1-2)[GalNAc(b1-3)]Gal
# Outline: as §1
# Fuc(a1-3)GlcNAc = biological target: Fuc(a1-3)GlcNAc
# Outline: as §1
# [32] = biological target: Fuc(a1-3)[Gal(b1-4)]Glc6S
# Outline: as §1
# [33] = biological target: Fuc(a1-3)[Gal(b1-4)]GlcNAc
# Outline: as §1
# [34] = biological target: Fuc(a1-3)[Gal(b1-4)]GlcNAc(b1-2)Man
# Outline: as §1
# [35] = biological target: Fuc(a1-3)[Gal(b1-4)]GlcNAc(b1-2)Man(a1-3)[Fuc(a1-3)[Gal(b1-4)]GlcNAc(b1-2)Man(a1-6)]Man(b1-4)GlcNAc(b1-4)GlcNAc
# Outline: as §1
# [36] = biological target: Fuc(a1-3)[Gal(b1-4)]GlcNAc(b1-2)Man(a1-3)[Fuc(a1-3)[Gal(b1-4)]GlcNAc(b1-2)Man(a1-6)]Man(b1-4)GlcNAc(b1-4)[Fuc(a1-6)]GlcNAc
# Outline: as §1
# [37] = biological target: Fuc(a1-3)[Gal(b1-4)]GlcNAc(b1-3)Gal(b1-3)[Fuc(a1-4)]GlcNAc
# Outline: as §1
# [38] = biological target: Fuc(a1-3)[Gal(b1-4)]GlcNAc(b1-3)Gal(b1-4)[Fuc(a1-3)]GlcNAc
# Outline: as §1
# [39] = biological target: Fuc(a1-3)[Gal(b1-4)]GlcNAc(b1-3)Gal(b1-4)[Fuc(a1-3)]GlcNAc(b1-3)Gal(b1-4)[Fuc(a1-3)]GlcNAc
# Outline: as §1
# [40] = biological target: Fuc(a1-3)[Gal(b1-4)]GlcNAc(b1-3)GalNAc
# Outline: as §1
# [41] = biological target: Fuc(a1-3)[Gal(b1-4)]GlcNAc(b1-6)GalNAc
# Outline: as §1
# [42] = biological target: Fuc(a1-3)[Gal(b1-4)]GlcNAc(b1-6)[Gal(b1-3)GlcNAc(b1-3)]Gal(b1-4)Glc
# Outline: as §1
# [43] = biological target: Fuc(a1-3)[Gal(b1-4)]GlcNAc6S
# Outline: as §1
# [44] = biological target: Fuc(a1-3)[Gal3S(b1-4)]Glc
# Outline: as §1
# [45] = biological target: Fuc(a1-3)[Gal3S(b1-4)]GlcNAc
# Outline: as §1
# [46] = biological target: Fuc(a1-3)[Gal3S(b1-4)]GlcNAc6S
# Outline: as §1
# [47] = biological target: Fuc(a1-3)[GalNAc(b1-4)]GlcNAc
# Outline: as §1
# [48] = biological target: Fuc(a1-3)[GalNAc(b1-4)]GlcNAc6S
# Outline: as §1
# Fuc(a1-4)GlcNAc = biological target: Fuc(a1-4)GlcNAc
# Outline: as §1
# Fuc(b1-3)GlcNAc = biological target: Fuc(b1-3)GlcNAc
# Outline: as §1
# Gal(a1-2)Gal = biological target: Gal(a1-2)Gal
# Outline: as §1
# Gal(a1-3)Gal = biological target: Gal(a1-3)Gal
# Outline: as §1
# Gal(a1-3)Gal(b1-3)GlcNAc = biological target: Gal(a1-3)Gal(b1-3)GlcNAc
# Outline: as §1
# [49] = biological target: Gal(a1-3)Gal(b1-3)GlcNAc(b1-2)Man
# Outline: as §1
# [50] = biological target: Gal(a1-3)Gal(b1-3)GlcNAc(b1-2)Man(a1-3)[Gal(a1-3)Gal(b1-3)GlcNAc(b1-2)Man(a1-6)]Man(b1-4)GlcNAc(b1-4)GlcNAc
# Outline: as §1
# [51] = biological target: Gal(a1-3)Gal(b1-3)GlcNAc(b1-3)GalNAc
# Outline: as §1
# [52] = biological target: Gal(a1-3)Gal(b1-3)GlcNAc(b1-6)GalNAc
# Outline: as §1
# [53] = biological target: Gal(a1-3)Gal(b1-3)[Fuc(a1-4)]GlcNAc(b1-2)Man(a1-3)[Gal(a1-3)Gal(b1-3)[Fuc(a1-4)]GlcNAc(b1-2)Man(a1-6)]Man(b1-4)GlcNAc(b1-4)GlcNAc
# Outline: as §1
# Gal(a1-3)Gal(b1-4)Glc = biological target: Gal(a1-3)Gal(b1-4)Glc
# Outline: as §1
binder,measurement,setting,value
B1,glycan array binding signal (z-score),[1],1.28
same,glycan array binding signal (z-score),[2],-0.241
same,glycan array binding signal (z-score),[3],-0.247
same,glycan array binding signal (z-score),[4],-0.24
same,glycan array binding signal (z-score),[5],-0.248
same,glycan array binding signal (z-score),[6],-0.245
same,glycan array binding signal (z-score),[7],-0.239
same,glycan array binding signal (z-score),[8],-0.251
same,glycan array binding signal (z-score),[9],-0.243
same,glycan array binding signal (z-score),[10],-0.247
same,glycan array binding signal (z-score),[11],-0.249
same,glycan array binding signal (z-score),[12],-0.243
same,glycan array binding signal (z-score),[13],-0.235
same,glycan array binding signal (z-score),[14],-0.042
same,glycan array binding signal (z-score),[15],-0.068
same,glycan array binding signal (z-score),[16],-0.23
same,glycan array binding signal (z-score),[17],-0.251
same,glycan array binding signal (z-score),[18],-0.248
same,glycan array binding signal (z-score),[19],-0.244
same,glycan array binding signal (z-score),[20],-0.241
same,glycan array binding signal (z-score),[21],-0.1
same,glycan array binding signal (z-score),[22],-0.223
same,glycan array binding signal (z-score),[23],-0.243
same,glycan array binding signal (z-score),[24],-0.233
same,glycan array binding signal (z-score),[25],-0.246
same,glycan array binding signal (z-score),[26],-0.247
same,glycan array binding signal (z-score),[27],-0.245
same,glycan array binding signal (z-score),[28],-0.233
same,glycan array binding signal (z-score),[29],-0.235
same,glycan array binding signal (z-score),[30],-0.236
same,glycan array binding signal (z-score),[31],-0.245
same,glycan array binding signal (z-score),Fuc(a1-3)GlcNAc,-0.241
same,glycan array binding signal (z-score),[32],-0.224
same,glycan array binding signal (z-score),[33],-0.237
same,glycan array binding signal (z-score),[34],-0.237
same,glycan array binding signal (z-score),[35],1.41
same,glycan array binding signal (z-score),[36],-0.226
same,glycan array binding signal (z-score),[37],-0.23
same,glycan array binding signal (z-score),[38],-0.24
same,glycan array binding signal (z-score),[39],-0.242
same,glycan array binding signal (z-score),[40],-0.236
same,glycan array binding signal (z-score),[41],-0.244
same,glycan array binding signal (z-score),[42],-0.254
same,glycan array binding signal (z-score),[43],-0.238
same,glycan array binding signal (z-score),[44],-0.24
same,glycan array binding signal (z-score),[45],-0.229
same,glycan array binding signal (z-score),[46],-0.24
same,glycan array binding signal (z-score),[47],-0.238
same,glycan array binding signal (z-score),[48],-0.25
same,glycan array binding signal (z-score),Fuc(a1-4)GlcNAc,-0.239
same,glycan array binding signal (z-score),Fuc(b1-3)GlcNAc,-0.241
same,glycan array binding signal (z-score),Gal(a1-2)Gal,-0.244
same,glycan array binding signal (z-score),Gal(a1-3)Gal,-0.238
same,glycan array binding signal (z-score),Gal(a1-3)Gal(b1-3)GlcNAc,-0.242
same,glycan array binding signal (z-score),[49],-0.245
same,glycan array binding signal (z-score),[50],0.745
same,glycan array binding signal (z-score),[51],-0.241
same,glycan array binding signal (z-score),[52],-0.254
same,glycan array binding signal (z-score),[53],0.701
same,glycan array binding signal (z-score),Gal(a1-3)Gal(b1-4)Glc,-0.246
